Read counts are not given, so values of variants with three or more changes are uncertain.

Sequences and labels used below:
B1: CPEB3 Ribozyme (parent)
chain: UAACAGGGGGCCACAGCAGAAGCGUUCACGUCGCAGCCCCUGUCAGAUUCUGGUGAAUCUGCGAAUUCUGCUGUAUAUCUC

The variants in this data set derive from B1. Put plainly: self-cleavage, relative activity (ratio to wild type); higher = more cleavage; in vitro, sequencing. The procedure, abridged:
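Relative activity compares each variant's cleaved/total read fraction with that of the unmutated ribozyme. To get these fractions, barcoded CPEB3 ribozyme libraries from rounds of error-prone PCR were transcribed with T7 RNA polymerase for 5 hours at 37°C and then given 15 min of DNase I treatment before EDTA was added. The RNAs were reverse transcribed with template switching and sequenced on Illumina, and DNA sequencing linked barcodes to variants. A minimum of 5 reads applied, and three batches were averaged.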
Take A3G C11G U69C: the self-cleavage amounted to 0.12. Consider A3G C17U A65G U72C, for which the self-cleavage is 0.28. A3G A57C U69A: the self-cleavage was 0.23. For A3G A20U A47G U72A, the self-cleavage came out at 0.16. Take A3G A20U A28U A64G U74G: the self-cleavage turned out to be 0.4. With A3G A56U U67C U74C, the self-cleavage is 0.17.

Take A3G A35G U51C A65G: the self-cleavage was determined as 1.08. As for A3G A47G U58C U66C, the self-cleavage was found to be 0.29. Then A3G C27U U31A U54C U60C A65G, with 0.16.

As for A3G A20G U51G A65G U80C, the self-cleavage is 0.09. Regarding A3G A21G U51G U78C, the self-cleavage worked out at 0.69. For the variant A3G A35G C40U, the self-cleavage worked out at 1.22.

Take A3G A45U A57G U67C: the self-cleavage worked out at 0.33.

Regarding A3G C12A A18G A20G U78A U80C, the self-cleavage worked out at 0.3.

With A3G A28G U58G U74A U78G, the self-cleavage is 0.1. Regarding A3G A20G U69C G70C C79A, the self-cleavage was 0.49.

With A3G A64G U78A, the self-cleavage worked out at 1.12. With A3G A45G U51C U66C A75U, the self-cleavage turned out to be 0.26.

A3G A20G U31C U54A A77U U80A: the self-cleavage was determined as 0.61. Then A3G A64U U72G, with 0.73; and A3G A35G U51A U54C U58C, with 1.2; and A3G C11G U26C, with 0.45.

For A3G C29U G55A A77U, the self-cleavage amounted to 0.27.

Regarding A3G C12U C79U, the self-cleavage was found to be 1.25. For the variant A3G C12U U58A A64G, the self-cleavage is 0.46.

With A3G A28G A47G, the self-cleavage was 0.6.

Take A3G A35G G36A U51A A65U U80A: the self-cleavage is 0.16. Then A3G A21G U41G U43G U60C, with 0.06; and A3G C17G U25C A45G C50A U60C U69C, with 0.38.

As for A3G C27A U51A U76A, the self-cleavage came to 0.19. Then A3G A21G A28G C71U A75G, with 0.06. A3G A35U A47G A64U C71U U72A A75U: the self-cleavage was 0.14.

As for A3G A28C U43C A47G, the self-cleavage came out at 0.24. For A3G C23U U25C U43A A47G U74A, the self-cleavage stood at 0.73. In the case of A3G A57G U72C, the self-cleavage was determined as 0.43. Turning to A3G A35U A47G U66G U72C U74A U78A, the self-cleavage is 0.12. The same measure for A3G C17G C62A: 0.28; for A3G A45G U51C A56C A75G: 0.21; for A3G A28G A56G U67A: 0.42.

Turning to A3G C11U U43C A57G, the self-cleavage stood at 0.25. On to A3G C11A U31C, for which the self-cleavage was found to be 0.15. Turning to A3G A28U U41A C59U U72A, the self-cleavage was determined as 0.09.

Regarding A3G C4U G8A A13U A28C A57G, the self-cleavage is 0.18.

A3G A35G U48C U54A U69A: the self-cleavage is 0.8. On to A3G C4U U41A C71U, for which the self-cleavage was determined as 0.12.

Consider A3G C12A C23G A64G, for which the self-cleavage stood at 0.33. A3G A20G U48C U49A U54C U58C: the self-cleavage turned out to be 0.16.

For the variant A3G A28U U51A U58C U60C U78C, the self-cleavage is 0.22. As for A3G C12U A21G U43A U49C U72A, the self-cleavage is 0.19.

For A3G A20G U26C U48C A56U, the self-cleavage came to 0.12. In the case of A3G A20U A28G A45U U60A A77U, the self-cleavage is 0.08. In the case of A3G C12A A13U C38G U49A A64U, the self-cleavage was determined as 0.09. As to A3G C4U G8A A35U U51C, the self-cleavage was 0.11. In the case of A3G C12U U26C A35U C37U, the self-cleavage was 0.11. For A3G A21G U31A A56G A64G, the self-cleavage is 0.14. For A3G A20G U80C, the self-cleavage worked out at 0.95. Turning to A3G A20U C32U A35G A57G U78C U80G, the self-cleavage was found to be 0.18. In the case of A3G C11G A21G A65G, the self-cleavage stood at 0.09. Take A3G A28G U67C C68A U80C: the self-cleavage was 0.12.

On to A3G C12U U31A U41A A45U C71A, for which the self-cleavage is 0.05. With A3G C23U U43A A57G, the self-cleavage came to 0.11. As for A3G A21G C39A U54A U66A U80A, the self-cleavage is 0.05. For A3G A56G U69C G73A, the self-cleavage worked out at 0.87. Take A3G C14U A56U U60A: the self-cleavage worked out at 0.26.

As to A3G C12A A15C U43A U49C A56U G63A, the self-cleavage was 0.19. A3G C12U U48A U74C: the self-cleavage is 1.18.

With A3G A64G U67A C79A, the self-cleavage was found to be 0.3.

As to A3G C23U A28G G63A U80C, the self-cleavage was 0.34. Turning to A3G A56U A75G A77G U80A, the self-cleavage was found to be 0.31.

In the case of A3G C12A A13G U54A, the self-cleavage was found to be 1.07.

A3G A21G A45C U78C U80A: the self-cleavage is 0.46. On to A3G A45C U72A, for which the self-cleavage is 0.55. Consider A3G A47U U80C, for which the self-cleavage stood at 0.58.

For the variant A3G C12U G19C, the self-cleavage worked out at 0.47.

Take A3G A35U C44U A64G U80C: the self-cleavage came to 0.1. With A3G A20G U26C C44A A65G, the self-cleavage amounted to 0.44. Regarding A3G A21G A45G U66C, the self-cleavage was determined as 0.68. As to A3G C23A A35G U58C U78A, the self-cleavage worked out at 0.06. On to A3G C29U A35G A45U, for which the self-cleavage turned out to be 0.56. Take A3G A47U U60C: the self-cleavage is 0.41. The same measure for A3G A57G U69A C79U: 0.93; for A3G A20G U31C: 0.76; for A3G C14A C62G: 0.24. For A3G C17U A35G, the self-cleavage stood at 1.19.

As for A3G C14U A45G U48C A64U, the self-cleavage amounted to 0.15. For the variant A3G C14U U41G A45G A47U U51A A64G, the self-cleavage worked out at 0.31. Then A3G C23G U41C, with 0.15; and A3G C12G A21G U51C C71G U78C, with 0.07; and A3G A35G U43A, with 1.19. Consider A3G C17A A18G C62A, for which the self-cleavage is 0.28. Take A3G C12G A13G G24A: the self-cleavage turned out to be 0.28. For the variant A3G A20U U25A U51A G53A U74C, the self-cleavage worked out at 0.17.

Take A3G A45G U72C: the self-cleavage stood at 1.07.

Consider A3G C23U U72C U80C, for which the self-cleavage stood at 0.18. For the variant A3G A35G G36C U80C, the self-cleavage worked out at 0.29. As to A3G C12U A45G A57G U67C, the self-cleavage came out at 0.44. The same measure for A3G C17A A21G C62U: 0.31. In the case of A3G C11G G24A, the self-cleavage was found to be 0.11.

In the case of A3G C11G A21U G36A U49C, the self-cleavage was determined as 0.04.

As for A3G A21G U25A A45C G63A, the self-cleavage was 0.06. The same measure for A3G A45U U78C U80A: 0.54; for A3G A64G C68A: 0.27.

For the variant A3G A35C C38G U66C U78C, the self-cleavage amounted to 0.45. The same measure for A3G C29U G46U C62U A64G: 0.07. Consider A3G A45C U48C U66C, for which the self-cleavage was determined as 0.23. For A3G C23U U58A, the self-cleavage was found to be 0.12. Consider A3G A28G U51C, for which the self-cleavage came to 0.44.

In the case of A3G C12G A45G U51C, the self-cleavage was found to be 0.19. Take A3G A47G U67C U72C: the self-cleavage came out at 0.35. The same measure for A3G A21G G42A A56U U72C: 0.36.

As to A3G C17A U41A G42U U76C, the self-cleavage turned out to be 0.11. With A3G C27A U43A A47G A65G U78A, the self-cleavage was found to be 0.04. For the variant A3G A20G U49C, the self-cleavage came to 0.33. Consider A3G C12A C23G C32U, for which the self-cleavage stood at 0.32. For the variant A3G A35U U51A U80C, the self-cleavage was determined as 0.68.

Consider A3G C27A A57G U60C, for which the self-cleavage was 0.06. Consider A3G C11U C40U U43C, for which the self-cleavage turned out to be 0.06. Then A3G C4U A13G A21G A45U U69A A75G, with 0.44; and A3G A57G G63A A64U, with 0.26; and A3G A47U U48C, with 0.5. In the case of A3G A47G U49C U69G, the self-cleavage is 0.24.

Regarding A3G C17A U25C A28U U31A A35G A45G, the self-cleavage is 0.06. A3G A20G U31A U67G C79A: the self-cleavage worked out at 0.38. As to A3G C4A C44A, the self-cleavage was 0.64. As for A3G A28G U48C U66G, the self-cleavage is 0.1.

On to A3G C11A U26C, for which the self-cleavage was 0.25. As to A3G C11U U49C, the self-cleavage was determined as 0.09. Consider A3G C23A A28G A56G U67C C79U, for which the self-cleavage was 0.15. Regarding A3G A35G U60C U69C, the self-cleavage stood at 0.58.

As for A3G C11A A15U G19U A28U A47U U80C, the self-cleavage was 0.05.

Consider A3G A28G C38G U41C A56G, for which the self-cleavage amounted to 0.17.

With A3G C4G G9U, the self-cleavage was found to be 0.13.

With A3G C11G U26A G30A, the self-cleavage amounted to 0.08. A3G C27U U60C: the self-cleavage was 0.29. A3G A28G A75G: the self-cleavage is 0.61.

Turning to A3G A35U U69C, the self-cleavage came out at 0.37. In the case of A3G A21U C59A, the self-cleavage turned out to be 0.09. As to A3G A64G U80A, the self-cleavage turned out to be 1.06. A3G A28G U78A: the self-cleavage turned out to be 0.79. For A3G A47G A56U A64U, the self-cleavage stood at 0.31. Take A3G C12U A28G U31C U69C U76A: the self-cleavage was determined as 0.36. Turning to A3G C23G U25C U41C A47G, the self-cleavage is 0.48. For A3G A21G U48C U72A, the self-cleavage is 0.09. Turning to A3G C12U C17U A64G U72A, the self-cleavage worked out at 0.13.

Turning to A3G A20G U31C U41C A57G, the self-cleavage was 0.44.

With A3G A28G U31C U41G A45U U80A, the self-cleavage amounted to 0.45. Turning to A3G A45U U51A, the self-cleavage was 0.57. The same measure for A3G C12U U26C U31A G61A: 0.15; for A3G A28G C50U U80C: 0.63; for A3G A35U U78A: 0.8. Take A3G C23U U48C: the self-cleavage came to 0.41. The same measure for A3G A20U C62G U76A: 0.2; for A3G A21G U54A U74A A75U: 1.4. The same measure for A3G C23G U25C U41A U43C: 0.47; for A3G A57C U80C: 0.52; for A3G A35G U48C U72C: 1.12.

In the case of A3G C23U U41C A56G U69A, the self-cleavage is 0.22. On to A3G C12U A15U U54C, for which the self-cleavage was found to be 1.22. Consider A3G A21G A28G U41G, for which the self-cleavage turned out to be 0.57. The same measure for A3G A21G C38U A45G U72A: 0.14; for A3G A35U U49C A57G: 0.18; for A3G C11G C62U U69C C79A: 0.08. With A3G C14U C62G U76C, the self-cleavage was determined as 0.3. As to A3G C29U A56G, the self-cleavage amounted to 0.14. With A3G A35G U43G A64G U69C U72A, the self-cleavage is 0. The same measure for A3G A47G U67C U72C U76C: 0.23; for A3G A20U U43A A64G: 0.15.

(Values after the RNAGym collection of RNA variant scans (doi:10.1093/nar/gkz1192).)
